# Single values of this set are uncertain.
# B1: Ydj1; a variant is named by its letters at X, in order (parent)
# chain: MVKETKFYDILGVPVTATDVEIKKAYRKCALKYHPDKNPSEEAAEKFKEASAAYEILSDPEKRDIYDQFGEDGLSGAGGAGGFPGGGFGFGDDIFSQFFGAGGAQRPRGPQRGKDIKHEISASLEELYKGRTAKLALNKQILCKECEGRGGKKGAVKKCTSCNGQGIKFVTRQMGPMIQRFQTECDVCHGTGDIIDPKDRCKSCNGKKVENERKILEVHVEPGMKDGQRIVFKGEADQAPDVIPGDVVFIVSERPHKSFKRDGDDLVYEAEIDLLTAIAGGEFALEHVSGDWLKVGIVPGEVIAPGMRKVIEGKGMPIPKYGGYGNLIIKFTIKFPENHFTSEENLKKLEEILPPRIVPAIPKKATVDECVLADFDPAKYNRTRASRGGANYDSDEEEQGGEGVQCXXX
# Variants of: B1
# Assay: enrichment factor, frequency at 37 °C / frequency at 25 °C (thermotolerance selection) (ratio); higher = more growth at 37 °C, higher likelihood of farnesylation
# Conditions: with Saccharomyces cerevisiae ydj1Δ (yWS304); selective temperature 37 °C; reference temperature 25 °C
# Protocol: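 Pooled library of all 8,000 Ydj1-CXXX C-terminal motif variants (native CASQ replaced by C + three variable residues, one codon per amino acid) expressed from a CEN plasmid in S. cerevisiae ydj1Δ (yWS304). The library was grown in SC-Ura liquid to A600 ~2 (~8 generations) at permissive 25 °C or selective 37 °C. Reads from 8 and 7 replicates were pooled and variants counted by NGS. Enrichment factor = frequency at 37 °C / frequency at 25 °C, with a +1 correction; it reports Ydj1-dependent thermotolerance, used as a read-out of farnesylation by yeast FTase.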
row,Variant,enrichment factor
1,NKN,0.101
2,PKN,0.0779
3,QKN,0.198
4,CKN,0.171
5,RKN,0.175
6,SKN,0.131
7,TKN,0.0693
8,VKN,0.145
9,WKN,1.03
10,YKN,0.266
11,DKN,0.124
12,EKP,0.149
13,AKP,0.215
14,FKP,1.13
15,GKP,0.257
16,HKP,0.318
17,IKP,0.194
18,KKP,0.119
19,LKP,0.167
20,MKP,0.113
21,NKP,0.196

row,Variant,enrichment factor
1,PKP,0.154
2,QKP,0.125
3,CKP,0.137
4,RKP,0.133
5,SKP,0.0799
6,TKP,0.133
7,VKP,0.131
8,WKP,0.72
9,YKP,0.131
10,DKP,0.141
11,EKQ,0.48
12,AKQ,1.33
13,FKQ,1.32
14,GKQ,0.16
15,HKQ,0.596
16,IKQ,1.31
17,KKQ,0.145
18,LKQ,1.17
19,MKQ,0.345
20,NKQ,0.261
21,PKQ,0.772

row,Variant,enrichment factor
1,QKQ,0.316
2,CKQ,1.72
3,RKQ,0.388
4,SKQ,0.465
5,TKQ,1.31
6,VKQ,1.7
7,WKQ,1.24
8,YKQ,0.296
9,DKQ,0.0987
10,EKR,0.161
11,AKR,0.155
12,FKR,0.174
13,GKR,0.112
14,HKR,0.11
15,IKR,0.134
16,KKR,0.165
17,LKR,0.149
18,MKR,0.0511
19,NKR,0.0616
20,PKR,0.187
21,QKR,0.141

row,Variant,enrichment factor
1,CKR,0.13
2,RKR,0.183
3,SKR,0.177
4,TKR,0.133
5,VKR,0.104
6,WKR,0.16
7,YKR,0.105
8,DKR,0.108
9,EKS,0.116
10,AKS,0.21
11,FKS,0.81
12,GKS,0.0847
13,HKS,0.144
14,IKS,0.275
15,KKS,0.225
16,LKS,0.452
17,MKS,0.15
18,NKS,0.18
19,PKS,0.199
20,QKS,0.18
21,CKS,0.479

# From the supplement of paper PMC10320760
